58 molecules from PubChem BioAssay AID1508624 (National Center for Advancing Translational Sciences (NCATS), 2021) can be followed below.

Molecules are shown by their SMILES. Screen size: about 48,000 compounds; about 120 (0.25%) were called active. Another 4% or so got no clear call; they are omitted. Calls follow the shape of the dose curve; as a rule, active = well fitted activation curve with a large enough effect; inconclusive = small, poorly fitted or top-dose-only effect, or another doubt; inactive = no such curve, though single readings can be large or run the other way. Some of the results follow.

The assay in a line: Primary qHTS for Identification of Small Molecule Activators of Huntingtin-Antisense Promoter Activity. Also: nearly all actives have a fitted effect of over 55% in size. As to conditions: HEK293 HTT-AS promoter firefly luciferase reporter, 24 h; series mostly up to 57.5 µM; activity change, positive = activation: at the top concentration. In outline:
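Quantitative HTS used concentration series of up to 57.5 uM final on HEK293 luciferase reporter cells, 24 h at 37 degrees C. Readout was Dual-Glo firefly luminescence.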
A general note: In qHTS, concentration-response curves come from the screen itself.
As to `Cc1ccc(NC(=O)CN(c2ccccc2)S(=O)(=O)N(C)C)cc1Cl`, the “activity change, positive = activation” value is inactive: -33.2%.
Take `CCOC(=O)c1oc2ccc(S(=O)(=O)n3nc(-c4ccccc4OC)cc3N)cc2c1C`: the “activity change, positive = activation” value is inactive: -34%.
As for `O=C(c1ccc2c(c1)N(Cc1ccccc1F)C(=O)c1ccccc1S2(=O)=O)N1CCOCC1`, the “activity change, positive = activation” value is inactive: -17.2%.
In the case of `CCCN(CCC)CCCNC(=O)Cn1cnc2sc(C)c(S(=O)(=O)N3CCCCC3)c2c1=O`, the “activity change, positive = activation” value was inactive: -0.7%.
Regarding `CCCN(Cc1cccs1)C(=O)Nc1cc(Cl)c(OC)cc1OC`, the “activity change, positive = activation” value was inactive: -18.2%.
Regarding `Cc1ccc(-c2nc3nc(C)cc(N4CCN(c5cc(Cl)ccc5C)CC4)n3n2)cc1`, the “activity change, positive = activation” value is inactive: -12.7%.
For the molecule `COc1cccc(-n2c(SCC(=O)Nc3cc(C)ccc3C)nc3c(oc4ccccc43)c2=O)c1`, the “activity change, positive = activation” value was inactive: -17.3%.
Consider `COc1ccc(-c2cc(C(=O)Oc3ccccc3)c3cc(C)ccc3n2)cc1`, for which the “activity change, positive = activation” value was inactive: 19.5%.
On to `CCn1c(=O)n(-c2ccc(C)c(F)c2)c(=O)c2sc3ccccc3c21`, for which the “activity change, positive = activation” value was inactive: -12.2%.
On to `COc1ccc(C2=NC3(CCCCC3)N(CC(=O)Nc3ccc(C(C)C)cc3)C2=O)cc1`, for which the “activity change, positive = activation” value was inactive: -20.6%.
As for `CCOCCCNC(=O)c1ccc2nc(CCc3ccccc3)oc2c1`, the “activity change, positive = activation” value was inactive: 21.7%.
Take `CCc1ccc(NC(=O)C(NS(=O)(=O)c2cccs2)C(C)C)cc1` (stereo not drawn): the “activity change, positive = activation” value is inactive: -19.5%.
Take `CCCCN(C)CCNC(=O)c1ccc2c(=O)n(CCc3ccccc3)c(=O)[nH]c2c1`: the “activity change, positive = activation” value was inactive: 6.29%.
With `Cn1c(=O)c2c(c3ccccc31)OC(=O)CC2c1ccc(C(F)(F)F)cc1` (stereo not drawn) the figure was inactive: 11.2%; with `O=C(Nc1ccc2oc(-c3cccc4c(Br)cccc34)nc2c1)c1ccc(F)cc1`, inactive: 1.8% [at 11.5 µM, percent change from vehicle, -100% = no light]; with `COc1cccc(NC(=O)c2sc3nc(C)c(C(=O)Nc4ccc(C)cc4C)c(-c4ccccc4Cl)c3c2N)c1`, inactive: -0.786%.
Turning to `CCc1ccc(-c2nc(CN3CCC(C(=O)NCCc4ccc(Cl)cc4)CC3)c(C)o2)cc1`, the “activity change, positive = activation” value was inactive: -2.48%.
As to `CC1(C)O[C@H]2CC(=O)OC[C@]23[C@H]2CC[C@@]4(C)[C@H](c5ccoc5)OC(=O)[C@H]5O[C@]54[C@]2(C)C(=O)C[C@@H]13`, the activity change, positive = activation result was “inactive”.
Under `O=C1CSC(=O)N1C(CCc1ccncc1)COc1ccc(-c2cccc([N+](=O)[O-])c2)cc1` (stereo not drawn) stands inactive: -65.3%; under `Cc1ccc(CCNC(=O)c2ccc(NC(=O)N3CC(C)Sc4ccccc43)cc2)cc1` (stereo not drawn), inactive: -5.7%.
Take `COC(=O)C1=C(c2ccccc2)c2ccccc2S(=O)(=O)N1CC(=O)Nc1cccc(C(C)=O)c1`: the “activity change, positive = activation” value was inactive: -36.2%.
Under `NC(N)=NC(=O)Cc1c(Cl)cccc1Cl` stands inactive: -14.9%; under `COc1cccc(CN2CCc3nc(Nc4ccc5c(c4)OCCO5)ncc3C2)c1`, inactive: -2.08%; under `Cc1ccc2nc(N(Cc3cccnc3)C(=O)Cc3ccccc3)sc2c1`, inactive: -9.73%.
With `CCOC(=O)c1ccccc1NC(=O)Cn1ncc2c([nH]c3ccccc32)c1=O` the figure was inactive: -24.7%; with `COc1cccc(C2CC(=O)Nc3cc4c(cc32)OCCO4)c1OC` (stereo not drawn), inactive: -27.7%.
Turning to `CCc1ccccc1NC(=O)CCn1nc(C)c2c(C)n(-c3ccccc3)nc2c1=O`, the “activity change, positive = activation” value was inactive: 14.6%.
With `Cc1ccccc1Cn1c(SCc2ccc(C(=O)NC(C)c3ccccc3)cc2)nc2ccncc21` (stereo not drawn) the figure was inactive: -19.5%; with `CCc1ccc(-n2c(=O)c3c4c(sc3n(CC(=O)NCCCOC)c2=O)CCCC4)cc1`, inactive: -8.29%; with `O=C(NCCc1cccs1)c1ccc(Cn2c(SCc3ccc(F)cc3)nc3cccnc32)cc1`, inactive: 21.5%.
Regarding `COc1ccc(C(=O)CN2CCN(S(=O)(=O)c3ccc(C(C)C)cc3)CC2)cc1`, the “activity change, positive = activation” value is inactive: -25.1%.
With `N=c1c(C(=O)NCC2CCCO2)cc2c(=O)n3ccccc3nc2n1CCCO` (stereo not drawn) the figure was inactive: 19.9%.
For the molecule `COc1ccc(F)cc1S(=O)(=O)NCC(c1ccco1)S(=O)(=O)c1ccc(F)cc1` (stereo not drawn), the “activity change, positive = activation” value was inactive: -9.41%.
Consider `COc1ccc(Cn2c(C(=O)O)c(CNCCc3ccco3)c3ccc(C)cc32)cc1`, for which the “activity change, positive = activation” value is inactive: -23.6%.
With `Cc1cc(C(F)F)n2nc(C(=O)Nc3cccc(Cl)c3C)nc2n1` the figure was inactive: -1.65%; with `Cc1ccccc1OCC(=O)Nc1ccccc1C(=O)OCc1cc(=O)n2ccsc2n1`, inactive: -13.2%.
As for `Cc1nn(CCCC(=O)NCCc2ccc(Cl)cc2)c(=O)c2c1sc1ccccc12`, the “activity change, positive = activation” value is inactive: -26%.
For the molecule `Cn1ncc2c(NCc3ccccc3Cl)nc(NCCO)nc21`, the “activity change, positive = activation” value is inactive: -14.2%.
`COc1ccc2c(c1)c1c(c(=O)n(-c3ccccc3)c(=O)n1CC(=O)NCCC1=CCCCC1)n2C`: the “activity change, positive = activation” value is inactive: -19.2%.
For the molecule `O=C(Nc1ccc(-n2nncc2-c2ccccc2)cc1)c1cccc(F)c1`, the “activity change, positive = activation” value was inactive: -21.3%.
Turning to `CCOc1ccc(CNC(=O)C2CCN(S(=O)(=O)c3cn(C)cn3)CC2)cc1`, the “activity change, positive = activation” value is inactive: -3.34%.
Under `O=C(CN1C(=O)CCn2nc(-c3ccccc3)cc21)NCc1ccc(F)cc1` stands inactive: -14%.
With `COc1ccccc1N1CCN(C(=O)c2cn(C)c3ccc(S(=O)(=O)N(C)C4CCCCC4)cc3c2=O)CC1` the figure was inactive: 10.4% [at 11.5 µM, percent change from vehicle, -100% = no light]; with `CCOc1ccc(NC(=O)c2cnn(-c3ccc(C)c(C)c3)c2C2CCN(C(=O)OC(C)(C)C)CC2)cc1`, inactive: -3.14%.
In the case of `CC1=C(C(=O)Nc2ccccc2)C(c2ccc(C(=O)O)cc2)n2ncnc2N1` (stereo not drawn), the “activity change, positive = activation” value is inactive: -4.27%.
Turning to `CCOc1ccc(Nc2nc3c(S(=O)(=O)c4cccc(Cl)c4)nnn3c3ccsc23)cc1`, the “activity change, positive = activation” value is inactive: -25.2%.
Consider `CCc1ccc(OCC(=O)N(Cc2ccco2)Cc2ccccc2Cl)cc1`, for which the “activity change, positive = activation” value is inactive: -31.6%.
Under `Cc1ccc(NC(=O)CCCn2c(=O)c3cccn3c3ccccc32)c(C)c1` stands inactive: -4.52%; under `CCOC(=O)c1cnc2c(ccc3ccccc32)c1Nc1cccc(C(F)(F)F)c1`, inactive: -22.8%; under `Cc1ccc(C(=O)NCC(c2ccc3c(c2)OCO3)N2CCN(C)CC2)cc1C` (stereo not drawn), inactive: -7.4%.
With `CCc1noc(-c2ccc(NCc3ccccc3)c([N+](=O)[O-])c2)n1` the figure was inactive: 14%; with `CCOC(=O)c1c(C)c(C(=O)NCc2ccc(OC)cc2)c(C)n1CC`, inactive: -10.3%; with `COc1cccc(C(=O)N(Cc2cccnc2)c2nc3c(OC)ccc(C)c3s2)c1OC`, inactive: -34.2%.
With `O=C(CSc1nc2ccccc2nc1Cc1ccc(Cl)cc1)N1CCCc2ccccc21` the figure was inactive: -5.05%.
For the molecule `CCOc1cc(C2CC(=O)Nc3cc4c(cc32)OCCO4)ccc1O` (stereo not drawn), the “activity change, positive = activation” value was inactive: -26.3%.
`COC(=O)C(C)Sc1nc2c(cnn2-c2ccc(F)cc2)c(=O)[nH]1` (stereo not drawn): the “activity change, positive = activation” value was inactive: -4.34%.
On to `CCOC(=O)Cn1c(=O)n(C2CCCCC2)c2nc(-c3ccc(CC)cc3)nc(C(N)=O)c21`, for which the “activity change, positive = activation” value is inactive: -15.7%.
For `Cc1nc2ccccc2n2c(-c3ccccc3)c3c(=O)n(C)c(=O)n(C)c3c12`, the “activity change, positive = activation” value is inactive: 16.1%.
